Source: paper PMC3032772
No constants are given. Whether binding was seen depends on the method and setting. In cells and extracts the contact can be indirect. Some binding calls cover weakened binding; strength is not graded here.

Chains of the proteins cited; added tags and fusions are not shown. Lines headed by an entry give the natural chain unless they say otherwise; changes in a name come on top. A line that says so, or that is headed by a name, gives the form on record, which may keep a tag or linker. Residues count along the entry.
GFP-Cdc42V12 (P60953, form named): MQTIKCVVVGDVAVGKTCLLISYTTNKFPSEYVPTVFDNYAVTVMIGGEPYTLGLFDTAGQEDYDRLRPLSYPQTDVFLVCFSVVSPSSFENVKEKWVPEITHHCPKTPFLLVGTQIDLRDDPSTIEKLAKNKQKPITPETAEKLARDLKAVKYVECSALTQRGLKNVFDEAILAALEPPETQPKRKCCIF
GFP-Cdc42N17 (P60953, form named): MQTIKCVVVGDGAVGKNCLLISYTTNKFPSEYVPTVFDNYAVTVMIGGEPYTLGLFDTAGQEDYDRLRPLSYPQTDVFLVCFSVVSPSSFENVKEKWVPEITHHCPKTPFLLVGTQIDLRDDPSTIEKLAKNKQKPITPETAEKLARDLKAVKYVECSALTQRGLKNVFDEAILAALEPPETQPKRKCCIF
GFP-APC^1–1638 (P25054, residues 1-1638): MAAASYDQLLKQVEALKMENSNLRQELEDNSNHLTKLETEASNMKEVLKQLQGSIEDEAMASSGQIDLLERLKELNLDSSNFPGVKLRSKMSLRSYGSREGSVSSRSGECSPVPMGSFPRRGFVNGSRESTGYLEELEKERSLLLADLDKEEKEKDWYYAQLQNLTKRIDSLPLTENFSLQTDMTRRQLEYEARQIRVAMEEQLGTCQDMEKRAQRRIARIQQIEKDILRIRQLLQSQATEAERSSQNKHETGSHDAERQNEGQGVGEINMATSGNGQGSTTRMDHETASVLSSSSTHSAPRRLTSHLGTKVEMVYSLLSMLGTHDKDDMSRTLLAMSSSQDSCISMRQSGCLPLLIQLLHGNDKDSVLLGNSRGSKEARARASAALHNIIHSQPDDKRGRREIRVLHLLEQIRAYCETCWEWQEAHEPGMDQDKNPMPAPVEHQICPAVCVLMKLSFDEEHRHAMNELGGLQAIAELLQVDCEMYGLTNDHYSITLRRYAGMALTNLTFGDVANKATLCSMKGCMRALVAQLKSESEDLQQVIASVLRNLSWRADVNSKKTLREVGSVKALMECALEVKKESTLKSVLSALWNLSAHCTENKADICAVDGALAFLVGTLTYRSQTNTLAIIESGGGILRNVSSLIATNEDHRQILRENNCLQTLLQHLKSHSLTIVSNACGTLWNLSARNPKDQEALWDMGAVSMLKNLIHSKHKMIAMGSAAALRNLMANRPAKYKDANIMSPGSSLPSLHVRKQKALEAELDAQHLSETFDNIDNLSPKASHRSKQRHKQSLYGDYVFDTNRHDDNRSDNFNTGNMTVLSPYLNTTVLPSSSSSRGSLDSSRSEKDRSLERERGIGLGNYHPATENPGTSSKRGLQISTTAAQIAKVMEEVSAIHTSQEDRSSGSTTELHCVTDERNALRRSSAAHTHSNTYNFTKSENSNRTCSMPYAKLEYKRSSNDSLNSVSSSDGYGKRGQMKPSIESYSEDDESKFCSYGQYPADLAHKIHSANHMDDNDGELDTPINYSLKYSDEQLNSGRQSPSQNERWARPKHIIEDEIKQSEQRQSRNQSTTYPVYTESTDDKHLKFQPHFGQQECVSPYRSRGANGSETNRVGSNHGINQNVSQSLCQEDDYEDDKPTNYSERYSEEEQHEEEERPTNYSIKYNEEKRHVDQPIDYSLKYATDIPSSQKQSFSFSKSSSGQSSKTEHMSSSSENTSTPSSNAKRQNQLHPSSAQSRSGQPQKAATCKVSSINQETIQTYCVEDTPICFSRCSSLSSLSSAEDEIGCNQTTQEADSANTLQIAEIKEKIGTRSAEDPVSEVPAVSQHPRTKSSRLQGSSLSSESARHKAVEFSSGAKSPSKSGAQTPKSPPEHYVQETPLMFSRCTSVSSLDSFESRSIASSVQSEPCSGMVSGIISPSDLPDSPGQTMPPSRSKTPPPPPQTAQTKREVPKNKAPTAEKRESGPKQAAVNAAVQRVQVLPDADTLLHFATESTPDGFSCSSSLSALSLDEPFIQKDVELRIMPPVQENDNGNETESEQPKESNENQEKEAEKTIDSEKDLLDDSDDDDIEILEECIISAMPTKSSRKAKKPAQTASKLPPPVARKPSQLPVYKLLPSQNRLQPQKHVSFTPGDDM
mRFP-APC^222–653 (P25054, residues 222-653): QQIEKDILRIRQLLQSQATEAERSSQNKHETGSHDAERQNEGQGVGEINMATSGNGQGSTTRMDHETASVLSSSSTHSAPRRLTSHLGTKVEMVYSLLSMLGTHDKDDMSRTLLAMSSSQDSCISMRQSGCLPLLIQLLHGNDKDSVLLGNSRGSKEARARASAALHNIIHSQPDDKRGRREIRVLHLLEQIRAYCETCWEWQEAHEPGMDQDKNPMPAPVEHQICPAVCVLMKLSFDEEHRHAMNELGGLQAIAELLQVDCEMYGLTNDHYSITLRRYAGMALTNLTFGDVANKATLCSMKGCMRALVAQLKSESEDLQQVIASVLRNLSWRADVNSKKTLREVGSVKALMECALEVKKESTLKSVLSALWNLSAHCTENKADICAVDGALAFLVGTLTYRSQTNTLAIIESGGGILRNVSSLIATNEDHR
mRFP-APC^222–453 (P25054, residues 222-453): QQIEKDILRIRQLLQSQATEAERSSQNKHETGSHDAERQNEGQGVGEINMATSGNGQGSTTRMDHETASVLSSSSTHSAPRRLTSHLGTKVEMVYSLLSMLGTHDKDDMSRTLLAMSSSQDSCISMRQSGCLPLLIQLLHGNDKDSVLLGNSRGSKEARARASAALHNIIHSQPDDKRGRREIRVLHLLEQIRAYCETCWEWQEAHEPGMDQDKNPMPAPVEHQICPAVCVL
UniProt Q9UQB8: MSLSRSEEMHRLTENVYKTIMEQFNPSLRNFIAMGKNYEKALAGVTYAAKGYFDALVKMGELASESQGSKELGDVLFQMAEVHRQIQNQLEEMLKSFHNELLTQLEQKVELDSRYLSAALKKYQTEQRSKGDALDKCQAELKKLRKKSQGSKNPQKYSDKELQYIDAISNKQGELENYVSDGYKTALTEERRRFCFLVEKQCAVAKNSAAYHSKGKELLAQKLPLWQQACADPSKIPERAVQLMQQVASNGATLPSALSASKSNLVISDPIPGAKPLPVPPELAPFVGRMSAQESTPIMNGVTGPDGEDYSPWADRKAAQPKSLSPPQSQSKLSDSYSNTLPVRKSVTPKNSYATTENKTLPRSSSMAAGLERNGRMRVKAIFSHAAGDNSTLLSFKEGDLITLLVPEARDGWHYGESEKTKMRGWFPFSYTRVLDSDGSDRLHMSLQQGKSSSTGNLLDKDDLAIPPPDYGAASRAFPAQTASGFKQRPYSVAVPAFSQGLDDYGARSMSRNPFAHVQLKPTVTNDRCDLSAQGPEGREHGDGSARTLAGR

Columns and labels:
[1] = target: mRFP-Cdc42V12 (UniProt P60953); assay: FRET or BRET; acceptor photobleaching FRET (AP-FRET), GFP donor and mRFP acceptor fusions coexpressed in CHO cells, fixed 24 h after transfection; positive FRET: %FE >3%
[2] = target: GST-Cdc42N17 (UniProt P60953); assay: pull-down; GST-tagged Cdc42V12, Cdc42N17 or GST bound to glutathione-sepharose beads; 35S-labelled in vitro translated products (reticulocyte lysate); SDS-PAGE, autoradiography; only the target purified
[3] = target: GST-Cdc42V12 (UniProt P60953); assay: as above
[4] = target: GFP-Cdc42V12 (UniProt P60953); assay: FRET or BRET; acceptor photobleaching FRET (AP-FRET), GFP donor and mRFP acceptor fusions coexpressed in CHO cells, fixed 24 h after transfection; positive FRET: %FE >3%
[5] = target: GFP-Cdc42N17 (UniProt P60953); assay: as above

binding [2] | binding [3] | Substance | also measured
– | – | GFP-APC^1–1638 (from UniProt P25054 1-1638) (domain or fragment) | binding [1]: binds
no binding | binds | ^35S-APC^222–653 (from UniProt P25054 222-653) (domain or fragment) | –
no binding | binds | ^35S-IRSp53 (from UniProt Q9UQB8 1-552) | –
– | – | mRFP-APC^222–453 (from UniProt P25054 222-453) (domain or fragment) | binding [4]: no binding
– | – | mRFP-APC^222–653 (from UniProt P25054 222-653) (domain or fragment) | binding [5]: no binding
